Test results published in PubChem BioAssay (NCI).
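The compound was tested at five concentrations on cells cultured in 96-well plates, with a 48-hour exposure period. GI50 marks 50% less growth. TGI: total growth inhibition.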

test system: NCI-H322M lung; assay: NCI-60 cell line screen, 48 h

`CC(=O)N1CC(=O)NC1=S` and `COC(=O)c1cnn2c1ccc1ccccc12` cannot be ordered by TGI: greater than 100 µM for the first, greater than 100 µM for the second.

Going from `O=C(Cc1ccccc1)NC(c1ccc(Cl)cc1)c1c(O)ccc2ccccc12` (stereo unspecified) to `Clc1ccc(C2=NN[C@H](c3cn(-c4ccccc4)nc3-c3ccccc3)C2)cc1`, the TGI rises from 14.4 µM to greater than 100 µM.

Compared with `CC(C)NC(=O)OCc1c(COC(=O)NC(C)C)c(-c2ccc(Cl)c(Cl)c2)n2c1CCC2`, `CCOC(=O)c1c(Cl)c2c(n1Cc1cccc(OC)c1)-c1oncc1CC2` is higher in TGI: 72.8 µM for the first, greater than 100 µM for the second.

`Brc1ccccc1C=NC12CC3CC(CC(C3)C1)C2` and `C/C=C1/CN2CCC34c5ccccc5N(C)C23C2CC1C4(C(=O)OC)C(O)O2` (stereo unspecified) cannot be ordered by TGI: greater than 100 µM for the first, greater than 100 µM for the second.

`N#CCCSC(=S)C1CCCC1=N` (stereo unspecified) and `CC1C2(C)OC(=N)C(C#N)(C(C)O2)C1(C#N)C#N` (stereo unspecified) cannot be ordered by TGI: greater than 100 µM for the first, greater than 100 µM for the second.

First: O=C(Nc1sccc1S(=O)(=O)c1ccc(Cl)cc1)c1ccccc1
Second: O=C(NC1CCCCC1)NS(=O)(=O)c1ccc(-n2nc3c(c2-c2ccc(Cl)cc2)Cc2ccccc2-3)cc1
The TGI of the first is higher: greater than 100 µM for the first, 33.2 µM for the second.

Going from `CCC[CH2][Sn]1([CH2]CCC)[O]CC(CN2CCOCC2)[O]1` (stereo unspecified) to `CC[C@@H]1CC[C@@H]2[C@H](CC[C@]3(C)[C@@H](O)CC[C@@H]23)[C@H]1CO`, the TGI rises from 28.6 µM to greater than 100 µM.

First: Cn1ccnc1C(=O)/C=C/c1ccc(CC(=O)Nc2ccc(F)cc2)cc1
Second: CC(=O)c1ccc(NC(=O)C(=O)C(C(=O)c2ccc(Cl)c(Cl)c2)C2OC(=O)c3ccccc32)cc1 (stereo unspecified)
The TGI of the first is lower: 5.5 µM for the first, greater than 100 µM for the second.

`NC(=O)CCC(NC(=O)Cc1ccccc1)C(=O)O` (stereo unspecified) (tested in a mixture with another compound) and `NC(=O)NC1=NC(Cc2ccccc2)C(=O)N1Cc1ccccc1` (stereo unspecified) cannot be ordered by TGI: greater than 8130 µM for the first, greater than 100 µM for the second.

`COc1cccc(Cn2c(-c3nonc3NC(C)=O)nc3ccccc32)c1` and `CC1=NN(c2cccc(Cl)c2)C(=N/c2nc3ccccc3s2)/C1=C\c1cccs1` cannot be ordered by TGI: greater than 100 µM for the first, greater than 100 µM for the second.

Compared with `Oc1ccc(-c2cn3cc(Cl)sc3n2)cc1`, `C/C(=N\Nc1nc2ccccc2s1)c1cnccn1` is higher in TGI: 70.5 µM for the first, greater than 100 µM for the second.

`CC1(C)CCCCCCC2CC2CCCCCC(C)(C)C1=O` (stereo unspecified) and `O=C1C(=c2cc3c(c4ccccc24)=NC24CCCCC2C(c2ccccc2)C=C(c2ccccc2)N34)C(=O)c2ccccc21` (stereo unspecified) cannot be ordered by TGI: greater than 100 µM for the first, greater than 100 µM for the second.

`C/C=N\n1c(C)c(C#N)c(C#N)c1N` and `Cc1sc(Nc2ccccc2[N+](=O)[O-])c(C#N)c1C` cannot be ordered by TGI: greater than 100 µM for the first, greater than 100 µM for the second.

`CCOC(=O)N[C@@H]1C2CC(=O)C(O2)[C@@H]1OC` (stereo partly specified) and `COC(=O)c1cc(C)ccc1C1CN=NC12Cc1cccc(C)c1C2=O` (stereo unspecified) cannot be ordered by TGI: greater than 100 µM for the first, greater than 100 µM for the second.

Going from `Cc1[nH]nc2ccc3nc(-c4ccc5[nH]ncc5c4)c4c(c3c12)CCCC4` to `CSc1ccc(-c2cc(-c3nc4ccccc4[nH]3)nc(N)c2C#N)cc1`, the TGI rises from 12.4 µM to greater than 100 µM.

`N#Cc1cc(N(CCCl)CCCl)c([N+](=O)[O-])cc1[N+](=O)[O-]` and `CS(=O)(=O)c1ccc(Oc2cc(F)cc(C#N)c2)c2c1[C@H](O)C(F)(F)C2` cannot be ordered by TGI: greater than 100 µM for the first, greater than 100 µM for the second.

`COc1cc(C2S/C(=C/c3ccccc3)C(=O)N2c2cc(Cl)c(Cl)cc2Cl)cc(OC)c1OC` (stereo unspecified) and `COc1cc2c(cc1OC)C1Cc3cc(OC)c(OC)cc3C(C2)O1` cannot be ordered by TGI: greater than 100 µM for the first, greater than 100 µM for the second.

`NC(=O)Nc1ccc(C(=O)NCCCNC(=O)c2ccc(NC(N)=O)cc2)cc1` and `O=C(Nc1cccc([N+](=O)[O-])c1)C(=O)C(C(=O)c1ccccc1F)C1OC(=O)C2C=CC=CC21` (stereo unspecified) cannot be ordered by TGI: greater than 100 µM for the first, greater than 100 µM for the second.

Going from `Cc1ccc2c(c1)C(C1Cc3cccc(C)c3C1=O)OC2=O` (stereo unspecified) to `CSc1nc2c(c(=O)[nH]1)N=C(c1ccc(Cl)cc1)CC(c1ccccc1)N2` (stereo unspecified), the TGI falls from greater than 100 µM to 34.3 µM.

First: CN=C(N)/N=C(\N)Nc1cc2ccccc2c2ccccc12
Second: C(=NCCCN1CCN(CCCN=Cc2cccc3ccccc23)CC1)c1cccc2ccccc12
The TGI of the first is lower: 30 µM for the first, greater than 100 µM for the second.

`CCn1c(-c2nonc2N)nc2cncc(C(=O)NCCNC)c21` and `COc1nc(N)nc2c1ncn2[C@@H]1O[C@H](CO)[C@@H](O)[C@@H]1O` cannot be ordered by TGI: greater than 23.7 µM for the first, greater than 100 µM for the second.

`Cc1cc(=O)oc2c(OS(C)(=O)=O)c(OS(C)(=O)=O)ccc12` and `COc1ccc2c(c1)CCN1CCCc3ccc(OC)cc3C21` (stereo unspecified) cannot be ordered by TGI: greater than 100 µM for the first, greater than 100 µM for the second.

Compared with `Clc1ccc(C2=C(c3ccccc3)C(c3ccc(Cl)cc3)N3C(=N[C@H]4CCCC[C@@H]43)N2)cc1` (stereo partly specified), `O=C(c1nc2ccc(Cl)cc2[nH]c1=O)C(O)c1ccc2c(c1)OCO2` (stereo unspecified) is higher in TGI: 24.1 µM for the first, greater than 100 µM for the second.

`S=C(c1ccc2c(c1)OCO2)N1CCN(c2cccc(Cl)c2)CC1` and `O=C(O)CP(=O)(O)O` cannot be ordered by TGI: greater than 100 µM for the first, greater than 100 µM for the second.

Going from `O=C(Cc1ccccc1)NC(c1ccc(Cl)cc1)c1c(O)ccc2ccccc12` (stereo unspecified) to `Clc1ccc(C2=NN[C@H](c3cn(-c4ccccc4)nc3-c3ccccc3)C2)cc1`, the GI50 rises from 3.54 µM to 5.41 µM (1.5-fold).

Going from `CCC[CH2][Sn]1([CH2]CCC)[O]CC(CN2CCOCC2)[O]1` (stereo unspecified) to `CCOC(=O)c1c(Cl)c2c(n1Cc1cccc(OC)c1)-c1oncc1CC2`, the GI50 falls from 15.2 µM to 3.53 µM (4.3-fold).

Going from `Cn1ccnc1C(=O)/C=C/c1ccc(CC(=O)Nc2ccc(F)cc2)cc1` to `COc1cccc(Cn2c(-c3nonc3NC(C)=O)nc3ccccc32)c1`, the GI50 rises from 2.07 µM to 5.74 µM (2.8-fold).

Going from `Oc1ccc(-c2cn3cc(Cl)sc3n2)cc1` to `S=C(c1ccc2c(c1)OCO2)N1CCN(c2cccc(Cl)c2)CC1`, the GI50 falls from 21.4 µM to 4.28 µM (5-fold).

Going from `Cc1[nH]nc2ccc3nc(-c4ccc5[nH]ncc5c4)c4c(c3c12)CCCC4` to `O=C(NC1CCCCC1)NS(=O)(=O)c1ccc(-n2nc3c(c2-c2ccc(Cl)cc2)Cc2ccccc2-3)cc1`, the GI50 rises from 1.31 µM to 14.2 µM (11-fold).

Going from `CCn1c(-c2nonc2N)nc2cncc(C(=O)NCCNC)c21` to `COc1nc(N)nc2c1ncn2[C@@H]1O[C@H](CO)[C@@H](O)[C@@H]1O`, the GI50 rises from 2.48 µM to greater than 100 µM.

Compound `CS(=O)(=O)c1ccc(Oc2cc(F)cc(C#N)c2)c2c1[C@H](O)C(F)(F)C2` has a GI50 greater than 100 µM.
